Assay results as given in the supplement of paper PMC8728848.
Some of the results follow.

Assays:
Assay in all cases: glycan array binding signal (z-score within array); higher = stronger binding
Details in all cases: glycan notation: IUPAC condensed, linker removed
[1] = molecular target: Fuc(a1-2)[Gal(a1-3)]Gal(b1-4)GlcNAc(b1-2)Man(a1-3)[Fuc(a1-2)[Gal(a1-3)]Gal(b1-4)GlcNAc(b1-2)Man(a1-6)]Man(b1-4)GlcNAc(b1-4)[Fuc(a1-6)]GlcNAc
Outline: (§1)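 From the Consortium for Functional Glycomics database, 3228 arrays were curated, keeping only those whose protein sequence was available. Binding is given as a within-array Z-score averaged across arrays sharing a protein sequence and across linkers. Negative Z-scores can be read as non-binding.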

[2] = molecular target: Fuc(a1-2)[Gal(a1-3)]Gal(b1-4)GlcNAc(b1-3)GalNAc
Outline: as §1

[3] = molecular target: Fuc(a1-2)[Gal(a1-3)]Gal(b1-4)GlcNAc(b1-6)GalNAc
Outline: as §1

[4] = molecular target: Fuc(a1-2)[Gal(a1-3)]Gal(b1-4)[Fuc(a1-3)]Glc
Outline: as §1

[5] = molecular target: Fuc(a1-2)[Gal(a1-3)]Gal(b1-4)[Fuc(a1-3)]GlcNAc
Outline: as §1

[6] = molecular target: Fuc(a1-2)[Gal(a1-3)]Gal(b1-4)[Fuc(a1-3)]GlcNAc(b1-3)GalNAc
Outline: as §1

[7] = molecular target: Fuc(a1-2)[Gal(a1-4)]Gal(b1-4)GlcNAc
Outline: as §1

[8] = molecular target: Fuc(a1-2)[GalNAc(a1-3)]Gal
Outline: as §1

[9] = molecular target: Fuc(a1-2)[GalNAc(a1-3)]Gal(b1-3)GalNAc(a1-3)[Fuc(a1-2)]Gal(b1-4)GlcNAc
Outline: as §1

[10] = molecular target: Fuc(a1-2)[GalNAc(a1-3)]Gal(b1-3)GalNAc(b1-3)Gal(a1-4)Gal(b1-4)Glc
Outline: as §1

[11] = molecular target: Fuc(a1-2)[GalNAc(a1-3)]Gal(b1-3)GlcNAc
Outline: as §1

[12] = molecular target: Fuc(a1-2)[GalNAc(a1-3)]Gal(b1-3)GlcNAc(b1-2)Man(a1-3)[Fuc(a1-2)[GalNAc(a1-3)]Gal(b1-3)GlcNAc(b1-2)Man(a1-6)]Man(b1-4)GlcNAc(b1-4)GlcNAc
Outline: as §1

[13] = molecular target: Fuc(a1-2)[GalNAc(a1-3)]Gal(b1-3)GlcNAc(b1-2)Man(a1-3)[Fuc(a1-2)[GalNAc(a1-3)]Gal(b1-3)GlcNAc(b1-2)Man(a1-6)]Man(b1-4)GlcNAc(b1-4)[Fuc(a1-6)]GlcNAc
Outline: as §1

[14] = molecular target: Fuc(a1-2)[GalNAc(a1-3)]Gal(b1-3)GlcNAc(b1-3)GalNAc
Outline: as §1

[15] = molecular target: Fuc(a1-2)[GalNAc(a1-3)]Gal(b1-3)GlcNAc(b1-6)GalNAc
Outline: as §1

[16] = molecular target: Fuc(a1-2)[GalNAc(a1-3)]Gal(b1-4)Glc
Outline: as §1

[17] = molecular target: Fuc(a1-2)[GalNAc(a1-3)]Gal(b1-4)GlcNAc
Outline: as §1

[18] = molecular target: Fuc(a1-2)[GalNAc(a1-3)]Gal(b1-4)GlcNAc(b1-2)Man
Outline: as §1

[19] = molecular target: Fuc(a1-2)[GalNAc(a1-3)]Gal(b1-4)GlcNAc(b1-2)Man(a1-3)[Fuc(a1-2)[GalNAc(a1-3)]Gal(b1-4)GlcNAc(b1-2)Man(a1-6)]Man(b1-4)GlcNAc(b1-4)GlcNAc
Outline: as §1

[20] = molecular target: Fuc(a1-2)[GalNAc(a1-3)]Gal(b1-4)GlcNAc(b1-2)Man(a1-3)[Fuc(a1-2)[GalNAc(a1-3)]Gal(b1-4)GlcNAc(b1-2)Man(a1-6)]Man(b1-4)GlcNAc(b1-4)[Fuc(a1-6)]GlcNAc
Outline: as §1

[21] = molecular target: Fuc(a1-2)[GalNAc(a1-3)]Gal(b1-4)GlcNAc(b1-3)Gal(b1-4)GlcNAc
Outline: as §1

[22] = molecular target: Fuc(a1-2)[GalNAc(a1-3)]Gal(b1-4)GlcNAc(b1-3)Gal(b1-4)GlcNAc(b1-3)Gal(b1-4)GlcNAc
Outline: as §1

[23] = molecular target: Fuc(a1-2)[GalNAc(a1-3)]Gal(b1-4)GlcNAc(b1-3)GalNAc
Outline: as §1

[24] = molecular target: Fuc(a1-2)[GalNAc(a1-3)]Gal(b1-4)GlcNAc(b1-3)[Fuc(a1-2)[GalNAc(a1-3)]Gal(b1-4)GlcNAc(b1-6)]GalNAc
Outline: as §1

[25] = molecular target: Fuc(a1-2)[GalNAc(a1-3)]Gal(b1-4)GlcNAc(b1-6)GalNAc
Outline: as §1

[26] = molecular target: Fuc(a1-2)[GalNAc(a1-3)]Gal(b1-4)[Fuc(a1-3)]GlcNAc
Outline: as §1

[27] = molecular target: Fuc(a1-2)[GalNAc(a1-3)]Gal(b1-4)[Fuc(a1-3)]GlcNAc(b1-3)GalNAc
Outline: as §1

[28] = molecular target: Fuc(a1-2)[GalNAc(a1-4)]Gal(b1-4)GlcNAc
Outline: as §1

[29] = molecular target: Fuc(a1-2)[GalNAc(b1-3)]Gal
Outline: as §1

[30] = molecular target: Fuc(a1-3)GlcNAc
Outline: as §1

B1: Pbx2 (Cryptococcus neoformans) (protein)
chain: AVSPLPSSTELVFYSQKRRRRRICSTATGSLSTPDPTRMTSDPYKRVGMRFSSVPRLLITFLSLLLLVSAAPPCVRFADYDSINQMFIDGGPGTKVLLCPNRLYRLSGPIIFTAADQEIATYGYPTGSERAVLRVEGRNTATAIQGDCRRCARVSVKNLVVDGNRKKLGRMRDFQLATGLVVLGGNEGQSIQNSWIKNPRGFTAIHIREGDKLQCSGARVEKNEIGPVGEEYDPEKDGDDPEMSPLGRPLADGVSIACRDSFIRDNTFRDNTDAAIVVYCSPGTLIHANHIFAQSLSAMAGILMVDSTPFNGDYTGTVVRSNIIDAVSRTIRVGIGIGPTVWSDDTETILTGGSVIGNGLKGRYMGYGIAAAGLKQWTIKDNWDEAKHEGRKSARCFDEPVNPDPIGLLYNRPTMEDCTVQSGFADHDFQYLVCIDGLYDKTNPPKHDPAPLAHDPSPTNAQEDNTVQQDGGDSKSKSIEQPREASDIEAEPSVEKMFSTGSEMMDDVLEHSHQRMHEVIDHLSRRIDILGAASAGKGSGDSKISEVLDPAMSSHLEKLQRKIEHLEFSLRSQIETAIQLRSAIQGWDQEMALVTDWEYDILLDVRHKLELSSYPHDQPLDPRLMRGQSYLNNEAVLVDDHSHPSLEGENLRAMSDRARLNANEEA
glycan array binding signal (z-score) [1]: -0.238
glycan array binding signal (z-score) [2]: -0.069
glycan array binding signal (z-score) [3]: 2.16
glycan array binding signal (z-score) [4]: -0.407
glycan array binding signal (z-score) [5]: 0.058
glycan array binding signal (z-score) [6]: 0.188
glycan array binding signal (z-score) [7]: -0.485
glycan array binding signal (z-score) [8]: -0.546
glycan array binding signal (z-score) [9]: -0.109
glycan array binding signal (z-score) [10]: -0.535
glycan array binding signal (z-score) [11]: -0.234
glycan array binding signal (z-score) [12]: -0.425
glycan array binding signal (z-score) [13]: -0.165
glycan array binding signal (z-score) [14]: 0.119
glycan array binding signal (z-score) [15]: -0.128
glycan array binding signal (z-score) [16]: -0.284
glycan array binding signal (z-score) [17]: -0.579
glycan array binding signal (z-score) [18]: 0.142
glycan array binding signal (z-score) [19]: -0.173
glycan array binding signal (z-score) [20]: -0.127
glycan array binding signal (z-score) [21]: -0.29
glycan array binding signal (z-score) [22]: -0.335
glycan array binding signal (z-score) [23]: -0.072
glycan array binding signal (z-score) [24]: 0.161
glycan array binding signal (z-score) [25]: -0.24
glycan array binding signal (z-score) [26]: -0.22
glycan array binding signal (z-score) [27]: 2.01
glycan array binding signal (z-score) [28]: -0.377
glycan array binding signal (z-score) [29]: -0.326
glycan array binding signal (z-score) [30]: -0.427
